PMC8996997, “YY1 Oligomerization Is Regulated by Its OPB Domain and Competes with Its Regulation of Oncoproteins” (Cancers, 2022)

B1: His×6-YY1([…]) (domain or fragment, human)
chain: QEVILVQTREEVVGGDDSDGLRAEDGFEDQILIPVPAPAGGDDDYIEQTLVTVAAAGKSGGGGSSSSGGGRVKKGGGKKSGKKSYLSGGAGAAGGGGADP[about 20 residues left out here]
notes: source: bacteria, recombinant, purified
B2: His×6-YY1(ΔZF) (domain or fragment, human)
chain: MASGDTLYIATDGSEMPAEIVELHEIEVETIPVETIETTVVGEEEEEDDDDEDGGGGDHGGGGGHGHAGHHHHHHHHHHHPPMIALQPLVTDDPTQVHHHQEVILVQTREEVVGGDDSDGLRAEDGFEDQILIPVPAPAGGDDDYIEQTLVTVAAAGKSGGGGSSSSGG[about 100 residues left out here]PPGGIPGIDLSDPKQLAEFARMKPRKIKEDDAPRT
notes: YY1 without the zinc finger domain; source: recombinant, purified
B3: His×6-YY1([…]) (domain or fragment)
chain: not shown
notes: as for B1

Columns and labels:
[1] = molecular target: T1, His×6-YY1(wt) (human, UniProt P25490); experiment: SPR; Biacore T200; about 12,000 RU of His×6-YY1(wt) immobilised by amine coupling on a CM5 chip; analytes at 62.5, 125, 250, 500 and 1000 nM; settings: both partners purified
T1 construct: Yin Yang 1 (YY1), wild type; also called Yin Yang 1; source: bacteria, recombinant, purified

[2] = molecular target: T2, His×6-YY1(1–226) (human, UniProt P25490 1-226); experiment: SPR; Biacore T200; His×6-YY1(1–226) immobilised by amine coupling on a CM5 chip; analytes at 62.5, 125, 250, 500 and 1000 nM; settings: both partners purified
T2 construct: source: bacteria, recombinant, purified

[3] = molecular target: the molecule itself; experiment: native gel or EMSA; purified His×6 proteins on 10% native PAGE (Figure 3E); in Figure 3I YY1(ΔZF) (6.5 µg) with synthetic Cont, OPB or YPB peptide, 4 °C, 2 h

Row | Binder | binding result [1] | binding result [2] | binding result [3]
1 | B1 | binds | binds | 
2 | B2 |  |  | binds
3 | B3 | binds |  | 
